# Reference: PubChem BioAssay AID1030 (National Center for Advancing Translational Sciences (NCATS), 2008)
# About 16,000 (7.3%) of roughly 220,000 compounds were called active. This list was built around the results that the source calls inconclusive (neither active nor inactive); the mix of calls is not that of the screen. Calls come from the whole dose curve; as a rule, active = well fitted inhibition curve with a large enough effect (not every such curve was filed as active); inconclusive = small, poorly fitted or top-dose-only effect, or another doubt; inactive = no such curve, though single readings can be large or run the other way. Potencies of inconclusive entries are left out as doubtful fits.
# Target: Aldehyde dehydrogenase 1A1 (Homo sapiens) (UniProt P00352)
# Assay: qHTS Assay for Inhibitors of Aldehyde Dehydrogenase 1 (ALDH1A1);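 for activity, negative = inhibition: plate controls were no enzyme wells and a reference inhibitor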
# Settings: Purified ALDH1A1, NADH fluorescence, propionaldehyde substrate; series mostly up to 75.3 µM; activity, negative = inhibition: at the top concentration
# Potency is the fitted concentration of half-maximal effect; tags give direction and shape of the fitted curve.
# UniProt P00352, sequence (P00352 whole entry, looked up): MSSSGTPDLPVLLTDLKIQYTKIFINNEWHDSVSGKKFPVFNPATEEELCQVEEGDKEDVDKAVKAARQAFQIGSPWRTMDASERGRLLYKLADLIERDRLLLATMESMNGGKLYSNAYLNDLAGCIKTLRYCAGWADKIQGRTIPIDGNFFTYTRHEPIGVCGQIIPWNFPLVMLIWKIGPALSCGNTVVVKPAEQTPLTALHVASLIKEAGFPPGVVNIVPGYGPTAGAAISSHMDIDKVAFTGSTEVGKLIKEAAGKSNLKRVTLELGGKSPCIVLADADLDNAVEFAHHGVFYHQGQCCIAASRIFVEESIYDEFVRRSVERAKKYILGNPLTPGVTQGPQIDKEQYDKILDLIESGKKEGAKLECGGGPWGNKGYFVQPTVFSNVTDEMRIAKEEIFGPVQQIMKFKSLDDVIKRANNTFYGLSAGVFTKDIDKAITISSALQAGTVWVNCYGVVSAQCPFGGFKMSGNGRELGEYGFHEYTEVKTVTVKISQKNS
Structure (SMILES),Potency,"activity, negative = inhibition"
CC(C)OP(C)(=O)CN1CCN(CP(C)(=O)OC(C)C)CC1 (stereo not given),"inconclusive [inhibitor, single point]",
Cc1ccccc1-n1nnnc1SCCCC(=O)c1ccc(F)cc1,active: 0.0794 µM,
COc1cccc(C(=O)/C=C/c2ccc(OCC#N)c(OC)c2)c1,active: 8.91 µM,
Cc1cc(Br)ccc1-n1[nH]c(C)c(C=Nc2cccc3nsnc23)c1=O,,inactive: -6.04%
CC(C)C(=O)Nc1ccc2c(c1)nc1n2CCSC1,"inconclusive [inhibitor, single point]",
Cc1ccc(-c2nnc(-c3ccc4c(c3)OCO4)o2)cc1,"inconclusive [inhibitor, single point]",
COc1ccc(CCNC(=O)COc2ccc(C)nc2[N+](=O)[O-])cc1,"inconclusive [inhibitor, partial curve]",
COCCNC(=O)/C(C#N)=C/C=C/c1ccccc1,,inactive: -2.74%
CC(C)(C)c1ccc(C(=O)N2CCC(=O)N(C(COCc3ccccc3)Cc3ccccc3)CC2)cc1 (stereo not given),"inconclusive [inhibitor, partial curve]",
Cc1ccc(SCCC(=O)N/N=C/c2ccccc2O)cc1,,inactive: -8.27%
Cc1ccccc1C(CC(=O)c1cccs1)C(C#N)C#N (stereo not given),"inconclusive [inhibitor, single point]",
O=C(O)c1cc(/C=C/c2ccc(N3CCOCC3)cc2)nc2ccccc12,,inactive: -15.4%
N=c1c(-c2nc3ccccc3[nH]2)cc(C(=O)c2ccco2)nn1-c1ccccc1,"inconclusive [inhibitor, single point]",
O=C(CN1C(=O)CSc2cc(S(=O)(=O)N3CCCCCC3)ccc21)NCCc1ccccc1,"inconclusive [inhibitor, single point]",
CO/N=C\CC(=O)Nc1ccc(Oc2ccccc2)cc1,"inconclusive [inhibitor, single point]",
CCOC(=O)C1CCCN(Cc2c(C(=O)N3CCCCC3)nc3c(C)cccn23)C1 (stereo not given),"inconclusive [inhibitor, single point]",
O=CN1CCCN(Cc2nc(Cc3ccccc3F)no2)CC1,"inconclusive [inhibitor, single point]",
Cc1c(C(=O)O)c(C(=O)O)nc2ccc(N3CCOCC3)cc12,"inconclusive [inhibitor, partial curve]",
CCNc1ncc2nc(-c3cccc(C#N)c3)c(=O)n(C)c2n1,"inconclusive [inhibitor, partial curve]",
CC1CCCCN1CCCNC(=O)c1cc(Br)c(Br)[nH]1 (stereo not given),,inactive: -1.13%
CCn1c(Cc2ccccc2)nnc1SCC(=O)N1CCCCC1,"inconclusive [inhibitor, single point]",
CC(=O)NS(=O)(=O)c1ccc(NC(=O)CC(C)c2ccccc2)cc1 (stereo not given),,inactive: 1.02%
CCCCN(CC)S(=O)(=O)c1ccc(C(=O)Nc2nnc(-c3cccs3)o2)cc1,"inconclusive [inhibitor, partial curve]",
COc1ccc(C(=O)C(OC(=O)c2ccccc2Cl)c2ccccc2)cc1 (stereo not given),"inconclusive [inhibitor, single point]",
COc1ccc(/C=N/N(C)c2cc(=O)n(C)c(=O)[nH]2)cc1OC,,inactive: 5.37%

Structure (SMILES),Potency,"activity, negative = inhibition"
CN(C)c1ccc(C2(c3ccc(N(C)C)cc3)OC(=O)c3cc(N(C)C)ccc32)cc1,"inconclusive [inhibitor, partial curve]",
Cn1nc(-c2ccccc2)c(C(=O)NCC(=O)O)c1Cl,,inactive: 12%
COc1ccccc1CNS(=O)(=O)c1ccc(C)cc1,,inactive: 2.08%
O=C(CSc1n[nH]c(-c2ccccc2F)n1)NCC(=O)Nc1ccc(F)c(F)c1F,"inconclusive [inhibitor, single point]",
Cn1c(=O)c2[nH]c(SCCN3CCOCC3)nc2n(C)c1=S,,inactive: -11.5% [at 13.5 µM]
O=P(CCCCCCCCCP(=O)(c1ccccc1)c1ccccc1)(c1ccccc1)c1ccccc1,"inconclusive [inhibitor, single point]",
CS(=O)(=O)N(Cc1ccccc1)c1ccc(C(=O)NN=C2CCCCCC2)cc1,"inconclusive [inhibitor, partial curve]",
COc1cc2c(cc1OC)CN(CC(=O)NC(=O)NCc1ccccc1)CC2,active: 28.2 µM,
O=C(/C=C/c1ccc(-c2ccc(F)cc2)o1)N1CCCC1,"inconclusive [inhibitor, single point]",
CCOC(=O)Cn1nc(C)n(-c2ccc(C(C)(C)C)cc2)c1=O,,inactive: 3.76%
Cc1ccc(S(=O)(=O)C(C#N)c2nc3ccccc3nc2N2CCCCC2)cc1 (stereo not given),,inactive: -15.2%
O=S(=O)(Nc1cccc2c1ccc1cccn12)c1cccs1,"inconclusive [inhibitor, single point]",
CCOC(=O)CCc1n[nH]c(=O)[nH]c1=O,,inactive: 12%
OCCN1CCN(CC(O)COCc2ccc3c(c2)OCO3)CC1 (stereo not given),"inconclusive [inhibitor, single point]",
O=CN1CC(=O)N(c2ccccc2)c2c([nH]c3ccccc23)C1,"inconclusive [inhibitor, partial curve, poor fit]",
COC(=O)c1ccc(C)c(NS(=O)(=O)c2ccc(OC)cc2)c1,active: 0.794 µM,
O=C(CSCc1ccco1)Nc1cc(C(F)(F)F)ccc1N1CCOCC1,active: 7.08 µM,
O=C1/C(=C\c2ccco2)SC(=S)N1c1ccc(O)cc1,"inconclusive [inhibitor, single point]",
CCCC(=O)Nc1nc(-c2ccc(OC)cc2)cs1,,inactive: -5.34%
C/C(N)=C(/C#N)C(=O)COC(=O)C(c1ccccc1)c1ccccc1,"inconclusive [inhibitor, partial curve]",
c1ccc(-c2nc3ccccn3c2NCc2ccc3c(c2)OCO3)cc1,"inconclusive [inhibitor, partial curve]",
Cc1ccccc1OCC(O)Cn1c(SC(C)C)nc2c1c(=O)[nH]c(=O)n2C (stereo not given),active: 7.08 µM,
Oc1cc(O)c2c(c1)O[C@H](c1ccc(O)c(O)c1)[C@@H](O)C2,,inactive: 3.8%
C=C(C)COc1ccc2c(CC)cc(=O)oc2c1,"inconclusive [inhibitor, full curve]",
COc1cccc(CNC(=O)CCl)c1,active: 7.08 µM,

Structure (SMILES),Potency,"activity, negative = inhibition"
CCOC(=O)NC1(NC(C)C)Oc2ccccc2O1,"inconclusive [inhibitor, single point]",
O=C(CSC(=S)N1CCCCC1)N1N=CCC1c1ccccc1 (stereo not given),"inconclusive [inhibitor, single point]",
C/C(N)=C(/C#N)C(=O)COC(=O)CCSc1ccccc1Cl,"inconclusive [inhibitor, full curve, poor fit]",
C/C(=N\Nc1ccc(C(=O)O)cc1)c1ccc(Br)cc1,,inactive: 5.61%
Cc1nn(C)cc1CN(C)C(=O)c1cc2nc(-c3ccco3)cc(C(F)(F)F)n2n1,"inconclusive [inhibitor, partial curve]",
C/C=C/c1ccc(OCCCCOc2ccc(OC)cc2)c(OC)c1,"inconclusive [inhibitor, single point]",
COc1ccc(OC)c(-c2oc3ccccc3c(=O)c2O)c1,,inactive: -0.297%
COc1ccc(/C=N/NC(=O)CN(CCc2ccccc2)S(=O)(=O)c2ccc(NC(C)=O)cc2)cc1OC,"inconclusive [inhibitor, single point]",
CSc1cccc(NS(=O)(=O)c2ccccc2)c1,,inactive: -2.08%
CC(C)C(=O)NNc1nc2ccccc2s1,,inactive: 17.6%
Cc1nnc(SCC(=O)N2CCN(S(=O)(=O)c3ccccc3)CC2)s1,"inconclusive [inhibitor, single point]",
COc1ccc(-c2cc(C(F)(F)F)n3ncc(C(=O)N4CCc5ccccc5C4)c3n2)cc1,"inconclusive [inhibitor, single point]",
COc1ccc(NC(=S)N(CCN2CCCCC2)Cc2ccco2)cc1,"inconclusive [inhibitor, partial curve]",
CC(=O)C1=C(C)NC(SCC(=O)c2ccc(Cl)cc2)=C(C#N)C1c1ccco1 (stereo not given),active: 20 µM,
CCCOc1ccc(-c2nc(C#N)c(NCC3CCCO3)o2)cc1 (stereo not given),"inconclusive [inhibitor, partial curve]",
Cc1nc2ccc(S(=O)(=O)Nc3ccccc3C)cc2s1,"inconclusive [inhibitor, single point]",
Cc1c(CCO)c(=O)n(-c2ccccc2)n1S(=O)(=O)c1ccc(Cl)cc1,,inactive: -12.2%
O=C(O)C1C2C=CC(C2)C1C(=O)NC1CCS(=O)(=O)C1 (stereo not given),active: 22.4 µM,
Cn1cccc1C(=O)NC(=O)COC(=O)c1ccc(O)cc1,active: 3.16 µM,
C=CCC(C(=O)c1ccccc1)[N+](C)(C)CC=C (stereo not given),,inactive: 5.4%
O=C(CN1CCCCCC1)Nc1ccc(Oc2ccccc2)cc1,"inconclusive [inhibitor, partial curve]",
COc1ccc2nc(NC3=NC(c4ccccc4)CC(=O)N3)nc(C)c2c1 (stereo not given),"inconclusive [inhibitor, partial curve]",
Cc1ccc(S(=O)(=O)N2CN(Cc3ccco3)c3nc4ccccc4nc32)cc1,"inconclusive [inhibitor, single point]",
OCc1ccncc1.OCc1ccncc1.[Cl][Pt]([Cl])([Cl])[Cl],active: 2.82 µM,
Cn1c2ccccc2c2cc(C(=O)NNS(=O)(=O)c3ccc(F)cc3)sc21,"inconclusive [inhibitor, single point]",
